Where “and” joins values, the source holds several entries; their conditions need not be identical. Identical values can stand only once. The list shows a part of the results. Many values rest on one well or one pass, so single values are uncertain.

This passage reports growth results from the supplement of paper PMC10986608.

The test system of this test is Candida albicans DPL-15. In words: growth (OD600) after compound treatment (apparently relative to screen median) (relative growth (fraction; screen median 1.02)); DPL-15 is a caspofungin-resistant clinical isolate; higher = more fungal growth (less antifungal activity). The conditions noted are these: 25 µM; RPMI 1640; 48 h; 30 °C.
Take `O=C1CC2(CCCCC2)CNC(=O)c2cccc(c2)-c2cc(n[nH]2)COc2ccccc2CN1`: the growth amounted to 1.2. In the case of `COCCN1C(=O)CC[C@@]23C1=NC(C(=O)OC)=C(C(=O)OC)[C@@H]2N(Cc1ccccc1)c1ccccc13` it was 0.86; in that of `COc1cc(O)c(C(=O)/C=C/c2cccnc2)c(OC(C)=O)c1`, 0.942; in that of `CCc1ccccc1-n1nc(C(C)C)c2c1C(=O)NC2c1ccccc1` (configuration not stated), 1.02. In the case of `COC(=O)c1[nH]c2ccc(Cl)cc2c1[C@]12CCN(C(=O)Cc3cccc(F)c3F)[C@H]1Nc1ccccc12` it was 1.06. In the case of `Cc1cc(N)n(Cc2ccccc2Cl)n1` it was 1.06; in that of `CCCCCCN(C(C)=O)S(=O)(=O)NC(C)(C)C`, 1.18; in that of `C=C1C(=O)N2CCCC2C(=O)N1Cc1ccccc1` (configuration not stated), 1.01.

Take `CO[C@@H]1[C@H](O)CC[C@]2(O)CN(C3CCN(Cc4ccccc4)CC3)[C@](C)([C@H](O)CC=C(C)C)[C@@H]12`: the growth came to 1.21. Then `CC1=CC2=CC(=O)C[C@@H](C)[C@]2(O)[C@@H]2CCC3(OCCO3)[C@@]2(O[Si](C)(C)C)C1`, with 0.806; and `CC(C)=CCc1cc(O)c(O)c2oc3cc(O)cc(O)c3c(=O)c12`, with 0.601 and 0.715. In the case of `CCOC(=O)C1C=CC(OC)=CC=C1OC` (configuration not stated), the growth amounted to 1.21. In the case of `COC(=O)C1=C(C)N(CCc2cccs2)C(=S)NC1c1ccc(C(F)(F)F)cc1` (configuration not stated) it was 1.1. In the case of `Cc1cc(C)cc(-n2nc(C)c3c2C(=O)NC3c2cccc(C(F)(F)F)c2)c1` (configuration not stated) it was 0.886. Then `COc1ccc(N2C(=O)c3[nH]nc(CCc4ccccc4)c3C2c2ccc(F)cc2)cc1` (configuration not stated), with 0.984; and `CC(C)CC1=NCCN(C)C2=C1C(c1ccc(F)cc1)NC2=O` (configuration not stated), with 0.933. `CC(C)CC1=NCCN(C)C2=C1C(c1cccc(C(F)(F)F)c1)N(c1ccccc1)C2=O` (configuration not stated): the growth was 0.994.

Turning to `COc1cccc2c(=O)c3cccc(C(=O)O)c3[nH]c12`, the growth amounted to 1.12. In the case of `COC(=O)/C=C/c1ccccc1` it was 1.11.

With `C=CC[C@]12CC(=C)C[C@](CC=C)(C1=O)c1oc(-c3ccccc3)cc(=O)c1C2=O`, the growth was 0.973. Then `C=C(C)CC1=C([O-])[C@]2(CC(=C)C)CC(=C)C[C@](C(=O)C(C)C)(C1=O)C2=O`, with 1.14; and `COc1ccc([C@]23Oc4cc(OC)cc(OC)c4[C@](O)([C@H]2O)[C@@H](C(=O)N(C)OC)[C@@H]3c2ccccc2)cc1`, with 1.12.
